# Measurements published in the supplement of paper PMC11417369.
# The list shows a part of the results.
# Test system: PfSIP2 AP2 domain 1 (GST-tagged)
# Test: gcPBM binding intensity (ln(normalized median fluorescence intensity)); higher = stronger DNA binding
# Procedure, shortened: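 Using an Agilent 4 × 180k array, primer-extended double-stranded 36-bp intergenic genomic probes and negative controls were exposed for 1 h to GST-fused P. falciparum DNA-binding domains expressed in E. coli. Binding was carried out in 1× PBS with 1% milk, 0.2 mg/ml BSA, 0.5% salmon testes DNA and 0.03% Triton X-100, and protein was detected with Alexa488 anti-GST antibody and a 488 nm scan. Binding intensity is the highest Masliner-normalised natural-log median intensity across replicate spots of either probe orientation.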
row,Sequence,gcPBM binding intensity (ln)
1,GGGCATATAATATAAAGTACAGGACTATAAAAATAT [XGTACX_site4481],7.24
2,TATTATATGTATTGCACACCTTCAACAACTACTTCT [CACACA_site655],7.39
3,ATTGTGCACTTATATGCACACATTTTAGTTTTTTTT [CACACA_site2028],10.6
4,GAACAATATATTTGCACACAAAAAATATATATTTAT [CACACA_site3317],7.35
5,GGATAAAAAATATGTACACACATATAGATATCTATA [CACACA_site2693],7.04
6,GTTTACATCATTCTGGTGCAAAAAAAAAAAAAAATA,9.86
7,TAGATTTAAAAAAAAAAAAAATTTTTTTTTTTTTTT [TGCATGCA_negctrl_site593],7.14
8,GAATACTCATTTCTTTGTACATATATATGTGTATTT [XGTACX_site6411],7.07
9,ATACAAGTATTAATTACACACTCAAAAAGAAAAAAC [CACACA_site5287],6.96
10,TTCATATGGAATAAAAGTACGTATTAAAACAATTTT [XGTACX_site8742],6.9
11,CATATAAACAATAACACACACCTAGGTACATGGAAA [CACACA_site4615],6.99
12,CTTTTTAATTTATCGACACACGCATGAATAGAAATT [CACACA_site9112],6.94
13,AAAGCAAATAATAAGTGTACGGGTCAATATATGCGT [XGTACX_site1519],7.08
14,GTGTACAAAATATGGTAATAAAGTAGTTACATGAAT [CACACA_negctrl_site1775],7.23
15,CTAAATTGTTAATAGAGTACATTTGTATAATATAAG [XGTACX_site594],6.93
16,AATAAAATATAATAATTAATATATATATATATATAA [GTGCAC_negctrl_site457],7.48
17,TTATGTTGTAAATACACACATACATATACATACACA [CACACA_site733],7.05
18,TATGTGAAATAAGGATGTACAATTTTGATTTCCCCA [XGTACX_site8389],6.95
19,TTTAATGAAAGAAACACATACGTATCAAAATATATG [TGCATGCA_negctrl_site510],6.9
20,TACGTTGTATATTTTTGTACATATTGAATTACAAAA [XGTACX_site5906],6.95
21,TTTTAATAATTTATAAAAAAAAAAAAAAAATAAATA [TGCATGCA_negctrl_site419],6.62
22,AAATGAATAAATAGGTCACACACAAATATATATAAA [CACACA_site8764],6.97

row,Sequence,gcPBM binding intensity (ln)
1,ATATATATATATATATGTACATATACATATGTGCAA [XGTACX_site5604],9.01
2,TATTTTTAAAATATAAGTAAAAAAATAATATAAACT [TGCATGCA_negctrl_site283],7
3,AATAAATAAAGAAGTACACACATATATATATATATA [CACACA_site4314],9.3
4,TAATTTCTTAGGTATTGTACAAATATTATATGATAT [XGTACX_site256],7.05
5,ATAATAAAAAAAATTAGTACATATATAAATATAAAT [XGTACX_site1937],6.85
6,ATATATCTATAAAAGGCTTCCCACTTTTTTTGTCAA [TGCATGCA_negctrl_site332],6.88
7,AGTACATTTTTGTGTGTGCACTAATATTATATACTT [GTGCAC_site9568],10.3
8,ATTTATTTTATTTTCACACACAAAAATAAATATCCG [CACACA_site2414],7.01
9,ATAAAAAAAAAAAAAAGTACACATATAAAAGTATTG [XGTACX_site8265],6.92
10,TAAATAATATCTATCACACACGCATAAATACAGATA [CACACA_site5449],6.98
11,ATTCTACCACGCGATATACACACTTGTAGACATCTT [CACACA_site188],7.29
12,TATAATGTATGTAGTGCACACCTCTATAATATATTA [CACACA_site8560],10.3
13,AAATTTATGTGTGCCTGTACATATCAAAGATTTAAG [XGTACX_site8547],7.14
14,CGCAATTAAAATATGTGTCCTCATTTTATAACATTT [XGTACX_site5340],6.98
15,TATTTACAAAAAAAATATAAAAAATATAAAATATAT [CACACA_negctrl_site575],6.88
16,AATATTAAAATAAAAAGTACTTATTTATGTATGTTG [XGTACX_site2682],7.25
17,TGTATAATATTTGGTGCACACAAATTAACAACTGTT [CACACA_site9245],11.4
18,TTTATATAACAACAAAATGGAAATATATATGTATGT [TGCATGCA_negctrl_site98],7.15
19,AAAAAAAAAAAAGAACGTACAAATTAATTTATAGAA [XGTACX_site5584],6.93
20,CAGACATATTAAAAGAGTACATATATATATATATAT [XGTACX_site1158],9.88
21,TGTTTATTACTCAGGTGTACTCAATTTTTTTTTTTT [XGTACX_site3470],7.18
22,TACACAAATATATACATACACACATATATACGCATA [CACACA_site394],7.19
